Drawing on article PMC7311171 (2020), this text covers binding for four molecules.

The chains behind the UniProt entries cited, without tags or fusion partners. Where a name states a change or a piece, a line headed by the entry shows the natural chain unless it says otherwise. Residues count along the entry.
GST-SMO^Ctail (aa 543–793) (P56726, residues 543-793): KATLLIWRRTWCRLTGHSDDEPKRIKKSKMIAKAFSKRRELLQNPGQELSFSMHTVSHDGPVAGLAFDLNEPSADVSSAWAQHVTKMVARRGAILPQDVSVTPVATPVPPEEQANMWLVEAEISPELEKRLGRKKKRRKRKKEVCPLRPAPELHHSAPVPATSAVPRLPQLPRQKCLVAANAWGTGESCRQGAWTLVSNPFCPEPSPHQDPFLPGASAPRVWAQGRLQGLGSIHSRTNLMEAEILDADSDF
SMO^Ctail with the first 10 amino acids deleted, yeast two-hybrid construct (P56726, residues 553-793): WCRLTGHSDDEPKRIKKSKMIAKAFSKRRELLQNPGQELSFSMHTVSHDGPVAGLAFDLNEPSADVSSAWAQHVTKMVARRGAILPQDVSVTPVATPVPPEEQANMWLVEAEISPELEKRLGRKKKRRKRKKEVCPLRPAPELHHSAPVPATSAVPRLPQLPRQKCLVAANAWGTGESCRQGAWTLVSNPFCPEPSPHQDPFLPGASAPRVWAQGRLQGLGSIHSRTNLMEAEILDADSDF

No constants are given. Whether binding was seen depends on the method and setting. For some assays here: Binding seen in cells or lysates may run through a third protein. Some entries that bind do so weakly or less than the wild type. For some assays here: Tags and fused reporters may be left off the sequences shown.

For assay [1], the target named is GST-SMO^Ctail (aa 543–793) (mouse) (UniProt P56726). The assay can be described thus: pull-down; GST-capture: glutathione Sepharose beads saturated with GST fusions; in vitro translated 6xMyc BBSome subunits or fragments in NSC250 buffer (25 mM Tris pH 8.0, 250 mM KCl, 5 mM MgCl2, 0.5% CHAPS, 1 mM DTT), 1 hr, 4°C; elution by PreScission cleavage; anti-Myc blot; only the target purified.

The target in assay [2] is T1, GST-SMO^H8 (GST fused to the first 19 amino acids of SMO^Ctail, aa 543–559) (mouse) (UniProt P56726).
T1 sequence: KATLLIWRRTWCRLTGH
The assay is described as above.

Assay [3] deals with T2, BBS2^C (residues 324–712), yeast two-hybrid construct (UniProt Q9BXC9).
T2 sequence: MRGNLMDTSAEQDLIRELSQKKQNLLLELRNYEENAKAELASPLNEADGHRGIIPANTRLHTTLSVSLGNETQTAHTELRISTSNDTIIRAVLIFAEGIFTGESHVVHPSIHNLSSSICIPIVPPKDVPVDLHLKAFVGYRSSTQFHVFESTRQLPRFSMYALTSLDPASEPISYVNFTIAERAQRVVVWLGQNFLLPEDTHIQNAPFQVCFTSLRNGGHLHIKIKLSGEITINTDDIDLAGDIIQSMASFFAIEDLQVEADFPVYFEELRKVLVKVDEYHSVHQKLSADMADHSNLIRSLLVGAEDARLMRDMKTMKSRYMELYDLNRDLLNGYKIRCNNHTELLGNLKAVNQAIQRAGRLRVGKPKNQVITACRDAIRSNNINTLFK
As to the kind of experiment: two-hybrid; yeast mated in a 96-well matrix; growth on medium lacking tryptophan, leucine and histidine.

For assay [4], the target named is SMO^Ctail with the first 10 amino acids deleted, yeast two-hybrid construct (UniProt P56726). The description is as above.
For assay [5], the target named is SMO^Ctail, yeast two-hybrid construct (UniProt P56726). Described as above.

B1: BBS7, in vitro translated, tagged with a 6xMyc epitope (protein, UniProt Q8IWZ6-2 1-672)
chain: MDLILNRMDYLQVGVTSQKTMKLIPASRHRATQKVVIGDHDGVVMCFGMKKGEAAAVFKTLPGPKIARLELGGVINTPQEKIFIAAASEIRGFTKRGKQFLSFETNLTESIKAMHISGSDLFLSASYIYNHYCDCKDQHYYLSGDKINDVICLPVERLSRITPVLACQDRVLRVLQGSDVMYAVEVPGPPTVLALHNGNGGDSGEDLLFGTSDGKLALIQITTSKPVRKWEIQNEKKRGGILCIDSFDIVGDGVKDLLVGRDDGMVEVYSFDNANEPVLRFDQMLSESVTSIQGGCVGKDSYDEIVVSTYSGWVTGLTTEPIHKESGPGEELKINQEMQNKISSLRNELEHLQYKVLQERENYQQSSQSSKAKSAVPSFGINDKFTLNKDDASYSLILEVQTAIDNVLIQSDVPIDLLDVDKNSAVVSFSSCDSESNDNFLLATYRCQADTTRLELKIRSIEGQYGTLQAYVTPRIQPKTCQVRQYHIKPLSLHQRTHFIDHDRPMNTLTLTGQFSFAEVHSWVVFCLPEVPEKPPAGECVTFYFQNTFLDTQLESTYRKGEGVFKSDNISTISILKDVLSKEATKRKINLNISYEINEVSVKHTLKLIHPKLEYQLLLAKKVQLIDALKELQIHEGNTNFLIPEYHCILEEADHLQEEYKKQPAHLERLYG
As to B1, the binding entry in assay [1] and in assay [2] was “binds” throughout.

B2: BBS7^C (BBS7[326-672]), yeast two-hybrid construct (domain or fragment, UniProt Q8IWZ6-2 326-672)
chain: SGPGEELKINQEMQNKISSLRNELEHLQYKVLQERENYQQSSQSSKAKSAVPSFGINDKFTLNKDDASYSLILEVQTAIDNVLIQSDVPIDLLDVDKNSAVVSFSSCDSESNDNFLLATYRCQADTTRLELKIRSIEGQYGTLQAYVTPRIQPKTCQVRQYHIKPLSLHQRTHFIDHDRPMNTLTLTGQFSFAEVHSWVVFCLPEVPEKPPAGECVTFYFQNTFLDTQLESTYRKGEGVFKSDNISTISILKDVLSKEATKRKINLNISYEINEVSVKHTLKLIHPKLEYQLLLAKKVQLIDALKELQIHEGNTNFLIPEYHCILEEADHLQEEYKKQPAHLERLYG
Turning to B2, the binding entry in assay [3] is reported as “binds”; in assay [4] it was “no binding”; in assay [5] it was “binds”.

B3: BBS5, in vitro translated, tagged with a 6xMyc epitope (protein, UniProt Q8N3I7 1-341)
chain: MSVLDALWEDRDVRFDLSAQQMKTRPGEVLIDCLDSIEDTKGNNGDRGRLLVTNLRILWHSLALSRVNVSVGYNCILNITTRTANSKLRGQTEALYILTKCNSTRFEFIFTNLVPGSPRLFTSVMAVHRAYETSKMYRDFKLRSALIQNKQLRLLPQEHVYDKINGVWNLSSDQGNLGTFFITNVRIVWHANMNDSFNVSIPYLQIRSIKIRDSKFGLALVIESSQQSGGYVLGFKIDPVEKLQESVKEINSLHKVYSASPIFGVDYEMEEKPQPLEALTVEQIQDDVEIDSDGHTDAFVAYFADGNKQQDREPVFSEELGLAIEKLKDGFTLQGLWEVMS
In the case of B3, the binding result in assay [1] and in assay [2] was “binds weakly” in each case.

B4: BBS7 βprop (aa 1–332), in vitro translated, 6xMyc (domain or fragment, UniProt Q8IWZ6-2 1-332)
chain: MDLILNRMDYLQVGVTSQKTMKLIPASRHRATQKVVIGDHDGVVMCFGMKKGEAAAVFKTLPGPKIARLELGGVINTPQEKIFIAAASEIRGFTKRGKQFLSFETNLTESIKAMHISGSDLFLSASYIYNHYCDCKDQHYYLSGDKINDVICLPVERLSRITPVLACQDRVLRVLQGSDVMYAVEVPGPPTVLALHNGNGGDSGEDLLFGTSDGKLALIQITTSKPVRKWEIQNEKKRGGILCIDSFDIVGDGVKDLLVGRDDGMVEVYSFDNANEPVLRFDQMLSESVTSIQGGCVGKDSYDEIVVSTYSGWVTGLTTEPIHKESGPGEEL
As for B4, in assay [2], the binding entry is “binds”.
